Changes are numbered by the printed parent chain. Results are given in words; binding and its absence hold for the method and conditions named. Binding seen in cells or lysates may run through a third protein. Some entries that bind do so weakly or less than the wild type. Where a sequence is shown, tags or fusion partners need not be part of it.

To fix the notation:
T1: hThrRS-L-Δ161-FLAG, hThrRS-L with TLN161 deleted, C-terminal FLAG tag (human) (UniProt A2RTX5)
T1 sequence: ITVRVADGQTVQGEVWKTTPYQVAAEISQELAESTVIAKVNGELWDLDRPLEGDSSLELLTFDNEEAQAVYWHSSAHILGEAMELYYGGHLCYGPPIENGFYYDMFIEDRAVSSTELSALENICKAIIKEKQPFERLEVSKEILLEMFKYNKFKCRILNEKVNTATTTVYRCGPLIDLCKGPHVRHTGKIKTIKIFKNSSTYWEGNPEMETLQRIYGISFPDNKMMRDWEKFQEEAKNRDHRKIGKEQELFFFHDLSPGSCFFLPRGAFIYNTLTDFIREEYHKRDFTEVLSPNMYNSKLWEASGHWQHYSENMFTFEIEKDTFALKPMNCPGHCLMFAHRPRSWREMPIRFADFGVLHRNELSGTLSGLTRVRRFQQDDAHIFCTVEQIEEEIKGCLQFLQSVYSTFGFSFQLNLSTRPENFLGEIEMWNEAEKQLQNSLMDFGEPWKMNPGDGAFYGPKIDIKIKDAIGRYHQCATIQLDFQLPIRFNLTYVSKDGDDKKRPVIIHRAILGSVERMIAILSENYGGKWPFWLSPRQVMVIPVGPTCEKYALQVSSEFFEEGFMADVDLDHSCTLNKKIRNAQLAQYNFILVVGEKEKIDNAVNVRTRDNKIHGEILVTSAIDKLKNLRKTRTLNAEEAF

T2: hThrRS-L-Hb/A-FLAG (human) (UniProt A2RTX5)
T2 sequence: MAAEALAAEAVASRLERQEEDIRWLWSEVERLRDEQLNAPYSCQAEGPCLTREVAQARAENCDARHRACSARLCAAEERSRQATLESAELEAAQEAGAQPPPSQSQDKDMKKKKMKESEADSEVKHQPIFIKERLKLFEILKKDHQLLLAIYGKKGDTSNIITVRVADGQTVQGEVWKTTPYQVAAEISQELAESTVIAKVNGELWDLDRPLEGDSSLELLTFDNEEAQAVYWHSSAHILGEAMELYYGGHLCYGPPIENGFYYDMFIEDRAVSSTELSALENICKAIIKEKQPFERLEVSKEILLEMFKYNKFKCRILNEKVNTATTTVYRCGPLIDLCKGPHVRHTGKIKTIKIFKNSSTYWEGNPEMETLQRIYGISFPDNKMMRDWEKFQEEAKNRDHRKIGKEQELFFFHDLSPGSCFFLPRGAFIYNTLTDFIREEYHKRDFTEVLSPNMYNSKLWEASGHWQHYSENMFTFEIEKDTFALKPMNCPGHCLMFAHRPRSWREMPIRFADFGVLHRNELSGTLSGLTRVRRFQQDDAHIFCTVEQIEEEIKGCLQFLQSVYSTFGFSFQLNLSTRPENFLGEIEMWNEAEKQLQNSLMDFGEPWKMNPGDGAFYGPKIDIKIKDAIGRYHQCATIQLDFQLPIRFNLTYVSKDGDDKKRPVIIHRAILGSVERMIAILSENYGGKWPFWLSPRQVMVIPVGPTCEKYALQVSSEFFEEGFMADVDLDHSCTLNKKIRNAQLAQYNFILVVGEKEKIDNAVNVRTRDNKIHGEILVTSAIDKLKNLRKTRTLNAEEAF

T3: hThrRS-L-Y619D with a C-terminal FLAG tag (human) (UniProt A2RTX5)
T3 sequence: T2 sequence with A57L, A64L, A68L, A71L, A75L, Y619D

B1: native hThrRS, endogenous in HEK293T (enzyme, UniProt P26639 1-723)
chain: MFEEKASSPSGKMGGEEKPIGAGEEKQKEGGKKKNKEGSGDGGRAELNPWPEYIYTRLEMYNILKAEHDSILAEKAEKDSKPIKVTLPDGKQVDAESWKTTPYQIACGISQGLADNTVIAKVNNVVWDLDRPLEEDCTLELLKFEDEEAQAVYWHSSAHIMGEAMERVYGGCLCYGPPIENGFYYDMYLEEGGVSSNDFSSLEALCKKIIKEKQAFERLEVKKETLLAMFKYNKFKCRILNEKVNTPTTTVYRCGPLIDLCRGPHVRHTGKIKALKIHKNSSTYWEGKADMETLQRIYGISFPDPKMLKEWEKFQEEAKNRDHRKIGRDQELYFFHELSPGSCFFLPKGAYIYNALIEFIRSEYRKRGFQEVVTPNIFNSRLWMTSGHWQHYSENMFSFEVEKELFALKPMNCPGHCLMFDHRPRSWRELPLRLADFGVLHRNELSGALTGLTRVRRFQQDDAHIFCAMEQIEDEIKGCLDFLRTVYSVFGFSFKLNLSTRPEKFLGDIEVWDQAEKQLENSLNEFGEKWELNSGDGAFYGPKIDIQIKDAIGRYHQCATIQLDFQLPIRFNLTYVSHDGDDKKRPVIVHRAILGSVERMIAILTENYGGKWPFWLSPRQVMVVPVGPTCDEYAQKVRQQFHDAKFMADIDLDPGCTLNKKIRNAQLAQYNFILVVGEKEKISGTVNIRTRDNKVHGERTISETIERLQQLKEFRSKQAEEEF
B2: native p43 (AIMP1), endogenous in human cells (protein, UniProt Q12904-2 1-336)
chain: MLPAVAVSEPVVLRFMIFCRLLAKMANNDAVLKRLEQKGAEADQIIEYLKQQVSLLKEKAILQATLREEKKLRVENAKLKKEIEELKQELIQAEIQNGVKQIPFPSGTPLHANSMVSENVIQSTAVTTVSSGTKEQIKGGTGDEKKAKEKIEKKGEKKEKKQQSIAGSADSKPIDVSRLDLRIGCIITARKHPDADSLYVEEVDVGEIAPRTVVSGLVNHVPLEQMQNRMVILLCNLKPAKMRGVLSQAMVMCASSPEKIEILAPPNGSVPGDRITFDAFPGEPDKELNPKKKIWEQIQPDLHTNDECVATYKGVPFEVKGKGVCRAQTMSNSGIK
B3: ArgRS, endogenous in human cells (enzyme, UniProt P54136 1-660)
chain: MDVLVSECSARLLQQEEEIKSLTAEIDRLKNCGCLGASPNLEQLQEENLKLKYRLNILRKSLQAERNKPTKNMINIISRLQEVFGHAIKAAYPDLENPPLLVTPSQQAKFGDYQCNSAMGISQMLKTKEQKVNPREIAENITKHLPDNECIEKVEIAGPGFINVHLRKDFVSEQLTSLLVNGVQLPALGENKKVIVDFSSPNIAKEMHVGHLRSTIIGESISRLFEFAGYDVLRLNHVGDWGTQFGMLIAHLQDKFPDYLTVSPPIGDLQVFYKESKKRFDTEEEFKKRAYQCVVLLQGKNPDITKAWKLICDVSRQELNKIYDALDVSLIERGESFYQDRMNDIVKEFEDRGFVQVDDGRKIVFVPGCSIPLTIVKSDGGYTYDTSDLAAIKQRLFEEKADMIIYVVDNGQSVHFQTIFAAAQMIGWYDPKVTRVFHAGFGVVLGEDKKKFKTRSGETVRLMDLLGEGLKRSMDKLKEKERDKVLTAEELNAAQTSVAYGCIKYADLSHNRLNDYIFSFDKMLDDRGNTAAYLLYAFTRIRSIARLANIDEEMLQKAARETKILLDHEKEWKLGRCILRFPEILQKILDDLFLHTLCDYIYELATAFTEFYDSCYCVEKDRQTGKILKVNMWRMLLCEAVAAVMAKGFDILGIKPVQRM

The first assay addresses T1, hThrRS-L-Δ161-FLAG, hThrRS-L with TLN161 deleted, C-terminal FLAG tag (human). Kind of assay: co-IP; FLAG-tagged hThrRS-L or mutant overexpressed in HEK293T; IP with anti-FLAG, Dynabeads protein G, 4°C; endogenous partners detected by western blotting. In general terms: A western blot detects proteins with antibodies after separation by electrophoresis.
In the case of B1, the binding entry is “binds”.
Still for that read-out and setting: the result for B2 reads “no binding”.
Regarding B3, the binding entry is “no binding”.

Another assay concerns the target T2, hThrRS-L-Hb/A-FLAG (human). The assay is described as above.
Regarding B1, the binding result is “binds”.
On the same count and under the same terms, the result for B2 reads “no binding”.
Same read-out and setting: the entry for B3 is “no binding”.

The next assay has as its target T3, hThrRS-L-Y619D with a C-terminal FLAG tag (human). Described as above.
For B1, the binding result is recorded as “binds”.
For the molecule B2, the binding entry was “binds”.
Same read-out and setting: the result for B3 reads “binds”.

Values taken from PMC6794377.
